In PMC7138916 (Pharmacology Research & Perspectives, 2020):

Columns and labels:
[1] = Bidirectional permeability and efflux ratio in Caco‐2 cells; type: in vitro ADME; settings: human
[2] = Bidirectional permeability in parental MDCK cells; type: in vitro ADME, Canine; settings: dog
[3] = Rat brain and blood microdialysis at steady state; settings: male, Sprague-Dawley, in vivo, iv, C m,brain, steady‐state unbound concentration in brain (right striatum), IV infusion, mean ± SD
[4] = Rat pharmacokinetic study, IV single bolus; settings: male, Sprague-Dawley, in vivo
human P-gp (MDR1) = human P-gp (MDR1) (Homo sapiens, UniProt P08183); experiment: Bidirectional permeability and efflux ratio in MDR1‐MDCK cells; type: in vitro ADME
Chain of human P-gp (MDR1) (P08183 whole entry): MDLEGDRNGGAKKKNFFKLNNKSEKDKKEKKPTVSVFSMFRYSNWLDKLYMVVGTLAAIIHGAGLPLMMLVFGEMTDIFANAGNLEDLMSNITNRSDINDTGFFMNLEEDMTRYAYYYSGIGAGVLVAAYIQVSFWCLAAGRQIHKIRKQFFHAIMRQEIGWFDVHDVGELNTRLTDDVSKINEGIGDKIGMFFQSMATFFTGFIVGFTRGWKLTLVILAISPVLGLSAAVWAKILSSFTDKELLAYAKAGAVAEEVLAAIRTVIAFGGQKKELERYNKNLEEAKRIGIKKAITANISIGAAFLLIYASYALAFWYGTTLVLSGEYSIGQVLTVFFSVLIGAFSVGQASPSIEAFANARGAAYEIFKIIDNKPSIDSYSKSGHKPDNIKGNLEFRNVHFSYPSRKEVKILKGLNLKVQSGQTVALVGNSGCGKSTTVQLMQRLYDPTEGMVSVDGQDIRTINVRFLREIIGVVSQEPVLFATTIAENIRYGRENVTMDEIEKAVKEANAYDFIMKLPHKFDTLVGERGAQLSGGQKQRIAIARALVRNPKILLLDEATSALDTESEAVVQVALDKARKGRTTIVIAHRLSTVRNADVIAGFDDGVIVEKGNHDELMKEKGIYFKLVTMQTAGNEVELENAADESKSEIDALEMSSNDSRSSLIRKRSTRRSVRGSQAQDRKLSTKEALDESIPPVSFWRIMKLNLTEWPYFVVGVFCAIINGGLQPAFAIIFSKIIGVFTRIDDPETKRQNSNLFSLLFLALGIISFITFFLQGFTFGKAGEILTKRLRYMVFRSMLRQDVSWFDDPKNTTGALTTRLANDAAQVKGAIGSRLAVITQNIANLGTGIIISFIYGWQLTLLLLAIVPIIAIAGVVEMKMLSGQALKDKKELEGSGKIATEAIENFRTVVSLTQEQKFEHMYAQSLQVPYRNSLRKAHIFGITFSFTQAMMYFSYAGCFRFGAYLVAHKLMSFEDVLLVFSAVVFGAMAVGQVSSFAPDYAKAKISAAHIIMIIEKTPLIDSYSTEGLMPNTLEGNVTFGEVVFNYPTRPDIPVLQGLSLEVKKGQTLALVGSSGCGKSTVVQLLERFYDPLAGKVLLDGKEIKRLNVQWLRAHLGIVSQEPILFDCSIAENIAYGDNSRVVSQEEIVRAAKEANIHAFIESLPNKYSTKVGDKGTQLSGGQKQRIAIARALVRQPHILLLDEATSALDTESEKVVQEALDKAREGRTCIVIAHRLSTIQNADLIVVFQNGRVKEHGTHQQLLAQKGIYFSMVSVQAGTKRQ

[5] = rat microdialysis; ref 8 (Chen et al); cited from earlier work

In the case of `CC(C)NCC(O)COc1ccc(CC(N)=O)cc1` (stereo not shown) [Atenolol, atenolol], the Papp A→B at 2 h, 5 μmol/L [1] is reported as 0.398 ± 0.114 ×10⁻⁶ cm/s, the Papp B→A at 2 h, 5 μmol/L [1] is reported as 0.595 ± 0.021 ×10⁻⁶ cm/s and the Papp A→B at 2 h, 1 μmol/L [2] is reported as 0.843 ± 0.67 ×10⁻⁶ cm/s. For the same compound, the Papp B→A at 2 h, 1 μmol/L [2] was 1.9 ± 0.43 ×10⁻⁶ cm/s, the Papp at 2 h, 1 μmol/L [2] was 1.37 ± 0.77 ×10⁻⁶ cm/s and the concentration at 6 h [3] was 1200 ± 430 nM. The Vd [4] was 2.88 ± 0.44 L/kg, the clearance [4] was 24.5 ± 3.7 mL/min/kg and the Papp A→B at 2 h, 1 μmol/L (human P-gp (MDR1)) was 2.5 ± 2.33 ×10⁻⁶ cm/s. For the same compound, the Papp B→A at 2 h, 1 μmol/L (human P-gp (MDR1)) was 1.04 ± 1.06 ×10⁻⁶ cm/s.

For `CC(C)(C(=O)O)c1ccc(C(O)CCCN2CCC(C(O)(c3ccccc3)c3ccccc3)CC2)cc1` (stereo not shown) [Fexofenadine], the Vd [4] was 1.56 ± 0.38 L/kg and the clearance [4] was 50.9 ± 6.1 mL/min/kg.

For `CC(C)NC[C@H](O)COc1ccc(CC(N)=O)cc1` [S‐atenolol], the “K p,uu,brain” value [5] is listed as “about 0.04”.
